From the supplement of paper PMC12217912
Some of the results follow. Sequences were assembled here from the parent chain. Values near 0.05 are background.

B1: TEV protease; numbered along this chain (parent)
chain: MGESLFKGPRDYNPISSSICHLTNESDGHTTSLYGIGFGPFIITNKHLFRRNNGTLVVQSLHGVFKVKDTTTLQQHLVDGRDMIIIRMPKDFPPFPQKLKFREPQREERICLVTTNFQTKSMSSMVSDTSCTFPSGDGIFWKHWIQTKDGQCGSPLVSTRDGFIVGIHSASNFTNTNNYFTSVPKNFMELLTNQEAQQWVSGWRLNADSVLWGGHKVFMVKPEEPFQPVKEATQL

Variants of: B1
Test: raw area under fraction-flipped curve 0-4 h after induction (AUC4h, not background-subtracted), DNA-recorder readout of cleavage of the substrate (dimensionless); higher = more cleavage of the substrate by the protease variant
Conditions: temperature: 34 °C; time window: 0-4 h after rhamnose induction
Description: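 In vivo DNA recorder in E. coli TOP10(DE3) ΔrhaA at 34 °C. Each TEVp single-site mutant (parent TEVp 0) is paired with a single-site variant of the 7-mer TEVs (canonical ENLYFQ|S). The substrate sits between flexible linkers in a Bxb1-sfGFP-TEVs-SsrA fusion, so cleavage stabilises Bxb1 and speeds flipping of a recombination array, read by NGS. The value is the raw area under the fraction-flipped curve over 0-4 h after rhamnose induction (AUC4h), with ≥20 reads per time point. It is not background-subtracted; inactive controls average about 0.047.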
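Note: Bxb1 expression induced with 0.2% (w/v) L-rhamnose at OD600 near 0.5, cultures sampled hourly, flipped fraction per protease–substrate barcode pair counted by paired-end Illumina sequencing.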

| Variant | area with substrate ENAYFQS | area with substrate ENCYFQS | area with substrate ENDYFQS | area with substrate ENEYFQS | area with substrate ENFYFQS | area with substrate ENKYFQS | area with substrate ENMYFQS | area with substrate ENNYFQS | area with substrate ENQYFQS | area with substrate ENVYFQS | area with substrate ENWYFQS | area with substrate ENYYFQS | area with substrate ENGYFQS | area with substrate ENIYFQS | area with substrate ENPYFQS | area with substrate ENSYFQS | area with substrate ENTYFQS | area with substrate ENRYFQS | area with substrate ENHYFQS |
| --- | --- | --- | --- | --- | --- | --- | --- | --- | --- | --- | --- | --- | --- | --- | --- | --- | --- | --- | --- |
| S154G | 0.0529 | 0.0678 | 0.0731 | 0.0774 | 0.0773 | 0.0663 | 0.0769 | 0.0489 | 0.0586 | 0.0562 | 0.054 | 0.055 |  |  |  |  |  |  |  |
| G202M | 0.0566 | 0.0645 | 0.0494 | 0.0609 | 0.0581 | 0.0476 | 0.0583 |  | 0.0505 | 0.0261 |  | 0.055 | 0.0352 | 0.0683 | 0.0463 | 0.0563 | 0.0573 |  |  |
| P40E | 0.0574 | 0.0655 | 0.065 | 0.0596 |  |  |  |  | 0.056 |  |  | 0.0348 |  |  |  | 0.0604 | 0.0594 | 0.0749 |  |
| N175T | 0.0719 |  | 0.089 |  |  | 0.0654 | 0.0705 | 0.0641 | 0.0629 |  |  | 0.0585 | 0.0529 | 0.0654 | 0.0656 |  | 0.0616 |  |  |
| E108S | 0.0496 | 0.0497 |  | 0.0556 |  |  |  | 0.0624 | 0.0478 | 0.0752 | 0.0591 |  | 0.0591 |  |  | 0.0584 |  | 0.0495 |  |
| A207Y | 0.0451 |  | 0.0536 | 0.0566 |  |  | 0.0325 | 0.0366 |  |  |  | 0.0549 | 0.0403 |  |  | 0.0533 |  |  |  |
| A207E | 0.0579 |  | 0.0296 | 0.067 |  |  | 0.0741 | 0.0676 |  |  |  |  |  | 0.103 |  | 0.0678 | 0.0465 |  | 0.0493 |
| N186W | 0.0604 |  | 0.0631 |  | 0.0475 | 0.0483 |  | 0.0705 |  |  | 0.0625 | 0.0861 | 0.0449 |  |  | 0.0671 | 0.0607 | 0.063 | 0.0415 |
| Q97I | 0.0535 | 0.0685 | 0.0592 |  | 0.0542 |  |  |  |  |  |  | 0.0507 | 0.0729 |  | 0.069 | 0.0449 | 0.0667 | 0.0591 | 0.0533 |
| F95W | 0.0547 | 0.0628 | 0.0539 | 0.0537 | 0.0273 |  |  | 0.0539 | 0.0542 | 0.0721 | 0.0688 | 0.0569 | 0.0495 |  |  | 0.066 |  | 0.0543 | 0.0774 |
| D161H | 0.0421 | 0.0621 | 0.0514 | 0.0394 | 0.0353 | 0.0607 |  |  |  | 0.0722 | 0.0212 | 0.0546 | 0.0508 |  |  |  |  |  | 0.071 |
| Q151W | 0.0593 | 0.0799 | 0.0586 | 0.0632 | 0.0656 |  | 0.0624 | 0.0589 | 0.0638 | 0.0744 | 0.0739 |  | 0.0698 | 0.0767 | 0.0599 | 0.065 | 0.0674 | 0.059 | 0.0643 |
| L22T | 0.0373 |  | 0.021 | 0.046 | 0.056 | 0.0494 | 0.0459 | 0.0458 | 0.0486 | 0.0474 |  | 0.0559 | 0.05 | 0.0287 | 0.0601 | 0.0507 |  | 0.054 |  |
| E25Q | 0.0682 | 0.0726 | 0.0645 | 0.0628 | 0.0347 | 0.0526 |  | 0.0802 | 0.0587 | 0.0881 | 0.0061 | 0.0487 | 0.0489 |  | 0.0763 | 0.0724 | 0.0761 | 0.057 |  |
| I15Y | 0.0621 | 0.0662 | 0.0557 | 0.0617 | 0.0655 | 0.0729 | 0.0648 | 0.0594 | 0.0641 |  | 0.0444 |  | 0.0591 | 0.0877 |  | 0.0649 | 0.0354 |  | 0.0695 |
| I15W | 0.0589 | 0.0638 | 0.0548 | 0.0739 | 0.0509 | 0.068 | 0.0661 | 0.0527 | 0.0639 | 0.0713 | 0.0554 | 0.052 | 0.07 | 0.117 | 0.0667 | 0.0597 | 0.0695 | 0.0635 | 0.0805 |
| D79I | 0.0673 |  |  |  |  |  | 0.0752 |  | 0.0554 |  |  |  |  |  |  | 0.0325 | 0.03 |  | 0.0791 |
| G54N | 0.0655 | 0.0653 | 0.0529 | 0.0626 |  |  | 0.0582 | 0.0566 | 0.052 | 0.0556 |  | 0.0659 |  | 0.0458 | 0.063 | 0.0636 | 0.0589 |  | 0.0487 |
| C111I | 0.0581 | 0.0649 |  | 0.0598 | 0.0764 | 0.0661 |  | 0.0624 | 0.0659 | 0.0755 | 0.0049 | 0.0667 |  | 0.0955 | 0.0684 | 0.0562 |  | 0.0635 | 0.0549 |
| N53I | 0.0604 | 0.127 | 0.0708 | 0.0603 | 0.0584 | 0.0566 | 0.0839 | 0.0545 | 0.106 | 0.0673 |  | 0.0667 |  | 0.0737 | 0.057 | 0.068 | 0.0628 | 0.0674 | 0.0533 |
| N53R | 0.0531 | 0.0677 | 0.074 | 0.0609 | 0.0667 | 0.0593 | 0.0923 | 0.0577 | 0.0581 | 0.0731 |  |  | 0.0598 | 0.104 |  | 0.0789 | 0.0386 | 0.0361 | 0.0579 |
| E107M | 0.0481 | 0.0768 | 0.0632 |  |  | 0.0566 |  | 0.0843 | 0.0495 |  |  |  |  | 0.0912 | 0.0618 | 0.067 |  | 0.0455 | 0.0643 |
| T70D | 0.0619 | 0.0606 | 0.0585 | 0.0425 |  | 0.0793 |  | 0.0632 |  | 0.062 | 0.062 |  | 0.0631 |  |  | 0.0469 | 0.0583 | 0.0699 | 0.0513 |
| P14S | 0.061 | 0.0658 | 0.0587 | 0.0679 | 0.0797 |  |  | 0.0665 | 0.0698 | 0.0706 | 0.072 | 0.0653 | 0.0688 | 0.0942 | 0.0561 | 0.0618 | 0.0672 | 0.0906 |  |
| A196I | 0.0687 | 0.0781 | 0.0637 | 0.0711 | 0.0714 |  | 0.0668 | 0.0576 | 0.0571 | 0.0748 |  | 0.0676 | 0.0632 | 0.104 |  | 0.0616 | 0.0622 | 0.0464 | 0.0607 |
| F226K | 0.0521 | 0.0564 | 0.0601 | 0.0501 | 0.0781 | 0.0534 |  | 0.0661 | 0.0662 | 0.0742 | 0.0587 | 0.0538 | 0.0601 |  |  | 0.0606 | 0.0718 |  | 0.0742 |
